# Data from PubChem BioAssay AID504832 (National Center for Advancing Translational Sciences (NCATS), 2011).
# About 18,000 (5.8%) of roughly 310,000 compounds were called active. Inconclusive results, whose numbers are uncertain, are shown with a selection of clear calls. Calls follow the shape of the dose curve; as a rule, active = well fitted inhibition curve with a large enough effect; inconclusive = small, poorly fitted or top-dose-only effect, or another doubt; inactive = no such curve, though single readings can be large or run the other way. Potencies of inconclusive entries are left out as doubtful fits.
# Experiment: Primary qHTS for delayed death inhibitors of the malarial parasite plastid, 48 hour incubation
# Settings: P. falciparum luciferase growth in erythrocytes; series mostly up to 28.7 µM
# Summary of the method: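 Luminescence readout; reporter = integrated firefly luciferase in P. falciparum. RBC culture at 2% hematocrit, 0.1% parasitemia final, 37 C/5% CO2; decreased signal taken as growth inhibition.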
# Potency is read from the fitted curve at half-maximal effect; tags tell the direction and shape of the fitted curve.
row,SMILES,Potency
1,CC1CN(c2oc(-c3cccs3)nc2C#N)CC(C)O1 (stereo unspecified),active: 10.4 µM
2,COc1cccc(-c2cc(=O)c3cc(NC(=O)c4ccc(Cl)cc4)ccc3[nH]2)c1,inactive
3,Cn1c(CCn2ccccc2=O)nc2cc(NC(=O)COc3ccccc3)ccc21,inactive
4,COC(=O)c1ccc(COc2ccc(-c3nnn(CC(N)=O)n3)cc2)cc1,inactive
5,O=C(COc1ccc2ccc(=O)oc2c1)Nc1cccc(S(=O)(=O)N2CCCCC2)c1,active: 11.7 µM
6,CCCCn1c(N)c(N(CC(C)C)C(=O)CCNC(=O)c2ccc([N+](=O)[O-])cc2)c(=O)[nH]c1=O,"inconclusive [inhibitor, single point]"
7,CC(=O)NC(=S)Nc1cc(C(F)(F)F)ccc1N1CCOCC1,inactive
8,O=C(OCC(=O)N1CCC(Cc2ccccc2)CC1)c1ccc(CO)cc1,"inconclusive [inhibitor, single point]"
9,Nc1nccs1,"inconclusive [inhibitor, partial curve, poor fit]"
10,CC(C)C(C)NC(=O)COC(=O)c1cccc(C(=O)OCC(=O)NC(C)C(C)C)n1 (stereo unspecified),inactive
11,COc1cc(CNc2ccccc2)c([N+](=O)[O-])cc1OC,active: 13.1 µM
12,CCc1nnc(NC(=O)C2(C)COC(c3ccc(OC)cc3)OC2)s1 (stereo unspecified),"inconclusive [inhibitor, single point]"
13,O=C(N/N=C/c1cc([N+](=O)[O-])ccc1O)c1cc(-c2ccccc2)nc2ccccc12,active: 2.94 µM
14,CC(C)OC(=O)CSc1nc(N2CCOCC2)c2c(c1C#N)CC(C)(C)OC2,active: 4.65 µM
15,CCc1cccc(CC)c1-n1c(SCC(=O)N2CCc3ccccc3C2)nnc1-c1cccnc1,active: 11.7 µM
16,Cc1onc(-c2c(F)cccc2Cl)c1C(=O)N1CCc2ccccc2C1,active: 5.86 µM
17,O=C(O)CCC(=O)N1CCc2cc(S(=O)(=O)NC3CCCc4ccccc43)ccc21 (stereo unspecified),"inconclusive [inhibitor, partial curve]"
18,Cc1ccc(N=C2NC(=O)C(CC(=O)NCc3ccccc3)S2)cc1C (stereo unspecified),inactive
19,COc1ccc(-c2oc3ncnc(NCCCN(C)C)c3c2-c2ccc(OC)cc2)cc1,"inconclusive [inhibitor, partial curve, poor fit]"
20,Cc1nc2ncnn2c(Nc2ccc3c(c2)OCO3)c1Cc1ccccc1,"inconclusive [inhibitor, single point]"
21,CC(NCc1ccc(OCc2ccc(Cl)cc2)cc1)C(O)c1ccccc1 (stereo unspecified),"inconclusive [inhibitor, single point]"
